Experimental data from the supplement of paper PMC8728848.
The list shows a part of the results.

Tests used:
Test in all cases: glycan array binding signal (z-score within array); higher = stronger binding
Conditions in all cases: glycan notation: IUPAC condensed, linker removed
[1] = biological target: GalNAc(b1-4)GlcNAc(b1-2)Man
Summary of the method: (§1)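 The binding signal is a Z-score computed within each array and averaged over linkers. Arrays of the same protein sequence at different concentrations or buffers were also averaged together. Data originate from 3228 arrays in the Consortium for Functional Glycomics database, kept only where the protein sequence was available.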

[2] = biological target: GalNAc(b1-4)GlcNAc(b1-2)Man(a1-3)[GalNAc(b1-4)GlcNAc(b1-2)Man(a1-6)]Man(b1-4)GlcNAc(b1-4)GlcNAc
Summary of the method: as §1

[3] = biological target: GalNAc(b1-4)GlcNAc(b1-3)GalNAc(b1-4)GlcNAc
Summary of the method: as §1

GalNAc(b1-4)GlcNAc6S = biological target: GalNAc(b1-4)GlcNAc6S
Summary of the method: as §1

GalNAc(b1-6)GalNAc = biological target: GalNAc(b1-6)GalNAc
Summary of the method: as §1

GalNAc3S(b1-4)GlcNAc = biological target: GalNAc3S(b1-4)GlcNAc
Summary of the method: as §1

GalNAc3S(b1-4)GlcNAc3S = biological target: GalNAc3S(b1-4)GlcNAc3S
Summary of the method: as §1

[4] = biological target: GalNAc3S(b1-4)[Fuc(a1-3)]GlcNAc
Summary of the method: as §1

GalNAc4S6S(b1-4)GlcNAc = biological target: GalNAc4S6S(b1-4)GlcNAc
Summary of the method: as §1

GalNAc6S(b1-4)GlcNAc = biological target: GalNAc6S(b1-4)GlcNAc
Summary of the method: as §1

Glc(a1-4)Glc = biological target: Glc(a1-4)Glc
Summary of the method: as §1

[5] = biological target: Glc(a1-4)Glc(a1-4)Glc(a1-4)Glc
Summary of the method: as §1

Glc(a1-6)Glc(a1-6)Glc = biological target: Glc(a1-6)Glc(a1-6)Glc
Summary of the method: as §1

[6] = biological target: Glc(a1-6)Glc(a1-6)Glc(a1-6)Glc
Summary of the method: as §1

Glc(b1-4)Glc = biological target: Glc(b1-4)Glc
Summary of the method: as §1

Glc(b1-6)Glc = biological target: Glc(b1-6)Glc
Summary of the method: as §1

GlcA(b1-3)Gal = biological target: GlcA(b1-3)Gal
Summary of the method: as §1

GlcA(b1-3)GlcNAc = biological target: GlcA(b1-3)GlcNAc
Summary of the method: as §1

GlcA(b1-6)Gal = biological target: GlcA(b1-6)Gal
Summary of the method: as §1

[7] = biological target: GlcA3S(b1-3)Gal(b1-4)GlcNAc(b1-2)Man
Summary of the method: as §1

[8] = biological target: GlcA3S(b1-3)Gal(b1-4)GlcNAc(b1-3)Gal(b1-4)Glc
Summary of the method: as §1

[9] = biological target: GlcNAc(a1-3)Gal(b1-4)GlcNAc
Summary of the method: as §1

[10] = biological target: GlcNAc(a1-4)Gal(b1-3)GlcNAc
Summary of the method: as §1

[11] = biological target: GlcNAc(a1-4)Gal(b1-4)GalNAc
Summary of the method: as §1

[12] = biological target: GlcNAc(a1-4)Gal(b1-4)GlcNAc
Summary of the method: as §1

[13] = biological target: GlcNAc(a1-4)Gal(b1-4)GlcNAc(b1-3)Gal(b1-4)Glc
Summary of the method: as §1

[14] = biological target: GlcNAc(a1-4)Gal(b1-4)GlcNAc(b1-3)Gal(b1-4)GlcNAc
Summary of the method: as §1

[15] = biological target: GlcNAc(a1-4)Gal(b1-4)GlcNAc(b1-3)Gal(b1-4)GlcNAc(b1-3)Gal(b1-4)GlcNAc
Summary of the method: as §1

[16] = biological target: GlcNAc(a1-4)Gal(b1-4)GlcNAc(b1-3)Gal(b1-4)[Fuc(a1-3)]GlcNAc(b1-3)Gal(b1-4)[Fuc(a1-3)]GlcNAc
Summary of the method: as §1

[17] = biological target: GlcNAc(a1-6)Gal(b1-4)GlcNAc
Summary of the method: as §1

[18] = biological target: GlcNAc(b1-2)Gal(b1-3)GalNAc
Summary of the method: as §1

[19] = biological target: GlcNAc(b1-2)Man(a1-3)[GlcNAc(b1-2)Man(a1-6)]Man(b1-4)GlcNAc(b1-4)GlcNAc
Summary of the method: as §1

[20] = biological target: GlcNAc(b1-2)Man(a1-3)[GlcNAc(b1-2)Man(a1-6)]Man(b1-4)GlcNAc(b1-4)[Fuc(a1-6)]GlcNAc
Summary of the method: as §1

[21] = biological target: GlcNAc(b1-2)Man(a1-3)[GlcNAc(b1-4)][GlcNAc(b1-2)Man(a1-6)]Man(b1-4)GlcNAc(b1-4)GlcNAc
Summary of the method: as §1

[22] = biological target: GlcNAc(b1-2)Man(a1-3)[GlcNAc(b1-4)][GlcNAc(b1-2)Man(a1-6)]Man(b1-4)GlcNAc(b1-4)[Fuc(a1-6)]GlcNAc
Summary of the method: as §1

[23] = biological target: GlcNAc(b1-2)[GlcNAc(b1-4)]Man(a1-3)[GlcNAc(b1-2)Man(a1-6)]Man(b1-4)GlcNAc(b1-4)GlcNAc
Summary of the method: as §1

[24] = biological target: GlcNAc(b1-2)[GlcNAc(b1-4)]Man(a1-3)[GlcNAc(b1-4)][GlcNAc(b1-2)Man(a1-6)]Man(b1-4)GlcNAc(b1-4)GlcNAc
Summary of the method: as §1

[25] = biological target: GlcNAc(b1-2)[GlcNAc(b1-4)]Man(a1-3)[GlcNAc(b1-4)][GlcNAc(b1-2)[GlcNAc(b1-6)]Man(a1-6)]Man(b1-4)GlcNAc(b1-4)GlcNAc
Summary of the method: as §1

[26] = biological target: GlcNAc(b1-2)[GlcNAc(b1-4)]Man(a1-3)[GlcNAc(b1-4)][GlcNAc(b1-2)[GlcNAc(b1-6)]Man(a1-6)]Man(b1-4)GlcNAc(b1-4)[Fuc(a1-6)]GlcNAc
Summary of the method: as §1

[27] = biological target: GlcNAc(b1-2)[GlcNAc(b1-6)]Man(a1-6)[GlcNAc(b1-2)Man(a1-3)]Man(b1-4)GlcNAc(b1-4)GlcNAc
Summary of the method: as §1

[28] = biological target: GlcNAc(b1-2)[GlcNAc(b1-6)]Man(a1-6)[GlcNAc(b1-2)Man(a1-3)]Man(b1-4)GlcNAc(b1-4)[Fuc(a1-6)]GlcNAc
Summary of the method: as §1

[29] = biological target: GlcNAc(b1-2)[GlcNAc(b1-6)]Man(a1-6)[GlcNAc(b1-4)][GlcNAc(b1-2)Man(a1-3)]Man(b1-4)GlcNAc(b1-4)GlcNAc
Summary of the method: as §1

GlcNAc(b1-3)Fuc = biological target: GlcNAc(b1-3)Fuc
Summary of the method: as §1

GlcNAc(b1-3)Gal = biological target: GlcNAc(b1-3)Gal
Summary of the method: as §1

[30] = biological target: GlcNAc(b1-3)Gal(b1-3)GalNAc
Summary of the method: as §1

B1: Thrombomodulin (Mus musculus) (protein)
chain: ALAKLQPTGSQCVEHECFALFQGPATFLDASQACQRLQGHLMTVRSSVAADVISLLLSQSSMDLGPWIGLQLPQGCDDPVHLGPLRGFQWVTGDNHTSYSRWARPNDQTAPLCGPLCVTVSTATEAAPGEPAWEEKPCETETQGFLCEFYFTASC
glycan array binding signal (z-score) [1]: -0.08 | glycan array binding signal (z-score) [2]: -0.166 | glycan array binding signal (z-score) [3]: -0.236 | glycan array binding signal (z-score) (GalNAc(b1-4)GlcNAc6S): -0.36 | glycan array binding signal (z-score) (GalNAc(b1-6)GalNAc): -0.209 | glycan array binding signal (z-score) (GalNAc3S(b1-4)GlcNAc): 0.212 | glycan array binding signal (z-score) (GalNAc3S(b1-4)GlcNAc3S): 0.001 | glycan array binding signal (z-score) [4]: 0.028 | glycan array binding signal (z-score) (GalNAc4S6S(b1-4)GlcNAc): -0.251 | glycan array binding signal (z-score) (GalNAc6S(b1-4)GlcNAc): -0.071 | glycan array binding signal (z-score) (Glc(a1-4)Glc): 0.026 | glycan array binding signal (z-score) [5]: 0.352 | glycan array binding signal (z-score) (Glc(a1-6)Glc(a1-6)Glc): -0.325 | glycan array binding signal (z-score) [6]: -0.276 | glycan array binding signal (z-score) (Glc(b1-4)Glc): -0.188 | glycan array binding signal (z-score) (Glc(b1-6)Glc): -0.231 | glycan array binding signal (z-score) (GlcA(b1-3)Gal): -0.295 | glycan array binding signal (z-score) (GlcA(b1-3)GlcNAc): 0.083 | glycan array binding signal (z-score) (GlcA(b1-6)Gal): -0.236 | glycan array binding signal (z-score) [7]: -0.132 | glycan array binding signal (z-score) [8]: -0.476 | glycan array binding signal (z-score) [9]: -0.129 | glycan array binding signal (z-score) [10]: -0.238 | glycan array binding signal (z-score) [11]: -0.394 | glycan array binding signal (z-score) [12]: -0.436 | glycan array binding signal (z-score) [13]: -0.282 | glycan array binding signal (z-score) [14]: -0.183 | glycan array binding signal (z-score) [15]: -0.453 | glycan array binding signal (z-score) [16]: 0.047 | glycan array binding signal (z-score) [17]: -0.229 | glycan array binding signal (z-score) [18]: 0.013 | glycan array binding signal (z-score) [19]: -0.244 | glycan array binding signal (z-score) [20]: -0.317 | glycan array binding signal (z-score) [21]: -0.227 | glycan array binding signal (z-score) [22]: -0.052 | glycan array binding signal (z-score) [23]: 0.101 | glycan array binding signal (z-score) [24]: 1.03 | glycan array binding signal (z-score) [25]: -0.374 | glycan array binding signal (z-score) [26]: -0.228 | glycan array binding signal (z-score) [27]: 0.026 | glycan array binding signal (z-score) [28]: -0.148 | glycan array binding signal (z-score) [29]: -0.367 | glycan array binding signal (z-score) (GlcNAc(b1-3)Fuc): 0.141 | glycan array binding signal (z-score) (GlcNAc(b1-3)Gal): -0.098 | glycan array binding signal (z-score) [30]: 0.096
